From the supplement of paper PMC12217912
The list shows a part of the results. Sequences were assembled here from the parent chain. Values near 0.05 are background.

B1: TEV protease; numbered along this chain (parent)
chain: MGESLFKGPRDYNPISSSICHLTNESDGHTTSLYGIGFGPFIITNKHLFRRNNGTLVVQSLHGVFKVKDTTTLQQHLVDGRDMIIIRMPKDFPPFPQKLKFREPQREERICLVTTNFQTKSMSSMVSDTSCTFPSGDGIFWKHWIQTKDGQCGSPLVSTRDGFIVGIHSASNFTNTNNYFTSVPKNFMELLTNQEAQQWVSGWRLNADSVLWGGHKVFMVKPEEPFQPVKEATQL
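Further: Bxb1 expression induced with 0.2% (w/v) L-rhamnose at OD600 near 0.5, cultures sampled hourly, flipped fraction per protease–substrate barcode pair counted by paired-end Illumina sequencing.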

Variants of: B1
Test: raw area under fraction-flipped curve 0-4 h after induction (AUC4h, not background-subtracted), DNA-recorder readout of cleavage of the substrate (dimensionless); higher = more cleavage of the substrate by the protease variant
Conditions: temperature: 34 °C; time window: 0-4 h after rhamnose induction
For Y34W, the “area with substrate ENLYFIS” value was 0.0664, the “area with substrate ENLYFNS” value was 0.0853 and the “area with substrate ENLYFSS” value was 0.0487. The “area with substrate ENLYFVS” value was 0.0501. In the case of Q97K, the “area with substrate ENLYFIS” value is reported as 0.0536. With T114D the “area with substrate ENLYFIS” value was 0.056, the “area with substrate ENLYFMS” value was 0.0572 and the “area with substrate ENLYFNS” value was 0.0687. For the same variant, the “area with substrate ENLYFPS” value was 0.0508, the “area with substrate ENLYFTS” value was 0.048 and the “area with substrate ENLYFYS” value was 0.052. For D161P, the “area with substrate ENLYFIS” value was 0.0515, the “area with substrate ENLYFKS” value was 0.0307 and the “area with substrate ENLYFMS” value was 0.0518. The “area with substrate ENLYFPS” value was 0.0415, the “area with substrate ENLYFTS” value was 0.0228 and the “area with substrate ENLYFVS” value was 0.0081. For S171T, the “area with substrate ENLYFIS” value was 0.0508, the “area with substrate ENLYFKS” value was 0.0476 and the “area with substrate ENLYFMS” value was 0.0482. For the same variant, the “area with substrate ENLYFSS” value was 0.0642, the “area with substrate ENLYFTS” value was 0.0037 and the “area with substrate ENLYFWS” value was 0.0543. With N193D the “area with substrate ENLYFIS” value was 0.0471, the “area with substrate ENLYFMS” value was 0.0874 and the “area with substrate ENLYFNS” value was 0.0641. For the same variant, the “area with substrate ENLYFVS” value was 0.0345. With E223G the “area with substrate ENLYFIS” value was 0.0654, the “area with substrate ENLYFPS” value was 0.0671 and the “area with substrate ENLYFTS” value was 0.0689. The “area with substrate ENLYFVS” value was 0.0581. For F173Q, the “area with substrate ENLYFKS” value was 0.0692, the “area with substrate ENLYFLS” value was 0.0544 and the “area with substrate ENLYFMS” value was 0.0738. The “area with substrate ENLYFNS” value was 0.0608, the “area with substrate ENLYFPS” value was 0.0702 and the “area with substrate ENLYFSS” value was 0.0651. With T174V the “area with substrate ENLYFKS” value was 0.0524, the “area with substrate ENLYFMS” value was 0.0606 and the “area with substrate ENLYFNS” value was 0.0626. The “area with substrate ENLYFPS” value was 0.0701. In the case of G35N, the “area with substrate ENLYFLS” value is reported as 0.0089. For V200R, the “area with substrate ENLYFYS” value was 0.0449.
